# Results reported in PubChem BioAssay (Tox21).
# The inconclusive results got no clear call from the source; some entries with a clear call stand among them for comparison. A call without a number means that no potency is given here. For some of these results: Where the call is inconclusive, the potency comes from a doubtful curve fit. Activity calls are given as the source filed them. Unless noted, calls come from the whole dose curve; as a rule, active = well fitted curve in the direction sought with a large enough effect in the repeat runs; inconclusive = weak or mixed curves; inactive = no such curve, though single readings can be large; an effect the other way counts as inactive or inconclusive.
# What was measured:
# [1] = target: Estrogen receptor (Homo sapiens) (UniProt P03372); assay: qHTS assay to identify small molecule agonists of the estrogen receptor alpha (ER-alpha) signaling pathway (AID 743075; calls by dose curve;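 note: HEK293 GripTite cells with ER-alpha and UAS-driven beta-lactamase reporter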); conditions: HEK293 ER-alpha-UAS-bla, beta-lactamase FRET ratio, 18 h; activation: at 70.1 µM (top of the series)
# [2] = test system: thyroid hormone receptor (rat, GH3 cells); assay: qHTS assay to identify small molecule agonists of the thyroid receptor (TR) signaling pathway (AID 743066; calls by dose curve); conditions: GH3.TRE-Luc cells, TR agonist luciferase, 24 h; activation: at 83.9 µM (top of the series) unless noted
# [3] = target: Androgen receptor (Homo sapiens) (UniProt P10275); assay: qHTS assay to identify small molecule antagonists of the androgen receptor (AR) signaling pathway (AID 743035; active = well fitted inhibition curve with a large enough effect in the signal ratio in the repeat runs, not every such curve was filed as active; inconclusive = weak or mixed curves, or effect the other way; inactive = no such curve, though single readings can be large or run the other way; the % refers to the signal ratio; note: potency is the fitted concentration of half-maximal effect); conditions: HEK293 AR-UAS-bla, R1881-stimulated, beta-lactamase FRET, 16 h; activity change, negative = inhibition: at 58.5 µM (top of the series) unless noted
# How it was run: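 Beta-lactamase FRET read (2 h RT incubation with LiveBLAzer B/G) following 16 h of compound plus R1881 treatment of AR-UAS-bla HEK293 cells, which had been pre-incubated 4 h at 37C.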
# [4] = target: Androgen receptor (Homo sapiens) (UniProt P10275); assay: qHTS assay to identify small molecule agonists of the androgen receptor (AR) signaling pathway (AID 743036; active = well fitted activation curve with a large enough effect in the signal ratio in the repeat runs, with a control signal flat, not every such curve was filed as active; inconclusive = weak or mixed curves, or effect the other way; inactive = no such curve, though single readings can be large or run the other way; the % refers to the signal ratio; note: potency is the fitted concentration of half-maximal effect); conditions: HEK293 AR-UAS-bla GripTite, beta-lactamase FRET ratio, 16 h; activation: at 62.4 µM (top of the series) unless noted
# How it was run: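 Screening used 2,000 AR-bla HEK293 cells per well, treated 16 h at 37C with test compounds in DMSO alongside positive and DMSO-only controls; beta-lactamase activity was then read by LiveBLAzer B/G FRET fluorescence after 2 h at room temperature.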
# [5] = qHTS assay for small molecule agonists of the antioxidant response element (ARE) signaling pathway - cell viability counter screen (AID 743203; calls by dose curve; note: nearly all actives have a fitted effect of over 55% in size); conditions: ARE-bla HepG2 viability, CellTiter-Glo luminescence, 16 h; viability change, negative = cytotoxic: at 73.3 µM (top of the series)
# How it was run: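 Following 16 hrs of compound treatment at 37C, HepG2 cells with an ARE-controlled beta-lactamase gene were lysed with CellTiter-Glo. Luminescence was read after 30 min at room temperature.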
# [6] = qHTS assay to identify small molecule antagonists of the estrogen related receptor (ERR) signaling pathway from Tox21 library (AID 1224848); note: nearly all actives have a fitted effect of over 50% in size; note: potency is the fitted concentration of half-maximal effect
# How it was run: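 Reading was by luminescence 30 min after ONE-Glo addition. Before that, ERR cells at 2,000 per well had rested 6 h at 37 C/5% CO2 and then received pin-tooled compounds in DMSO for 18 h at 37 C.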
# [7] = target: Bile acid receptor (Homo sapiens) (UniProt Q96RI1); assay: qHTS assay to identify small molecule antagonists of the farnesoid-X-receptor (FXR) signaling pathway (AID 743217; active = well fitted inhibition curve with a large enough effect in the signal ratio in the repeat runs, not every such curve was filed as active; inconclusive = weak or mixed curves, or effect the other way; inactive = no such curve, though single readings can be large or run the other way; the % refers to the signal ratio); conditions: HEK293T FXR-UAS-bla, beta-lactamase ratio, CDCA-stimulated, 16 h; activity change, negative = inhibition: at 62.6 µM (top of the series) unless noted
# How it was run: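 GeneBLAzer FXR-UAS-bla HEK 293T, CDCA-stimulated (50 uM final). Compound treatment 16 h, 37 °C. Detection: beta-lactamase cleavage of B/G FRET substrate, fluorescence.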
# [8] = target: Glucocorticoid receptor (Homo sapiens) (UniProt P04150); assay: qHTS assay to identify small molecule agonists of the glucocorticoid receptor (GR) signaling pathway (AID 720691; active = well fitted activation curve with a large enough effect in the signal ratio in the repeat runs, not every such curve was filed as active; inconclusive = weak or mixed curves, or effect the other way; inactive = no such curve, though single readings can be large or run the other way; the % refers to the signal ratio); conditions: GR-bla HeLa, beta-lactamase reporter ratio, 18 h; activation: at 62.4 µM (top of the series) unless noted
# How it was run: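 qHTS in GR-bla HeLa cells: 4 h settling at 37 C/5% CO2, 18 h compound incubation at 37 C, 2 h LiveBLAzer B/G FRET substrate at room temperature, fluorescence intensity measured.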
# [9] = qHTS assay to identify small molecule agonists of the androgen receptor (AR) signaling pathway in the presence of an antagonist - cell viability counter screen (AID 1259379);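 note: MDA-kb2 human breast cancer cells carrying an MMTV luciferase reporter; nearly all actives have a fitted effect of over 25% in size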
# How it was run: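 Seed MDA-kb2 at 3,000 cells/well; incubate 5 hr, 37C, 0% CO2. Add nilutamide to 3.0uM final, then pin compounds at 15 concentrations. Incubate 16 hr. Add CellTiter-Fluor at 15 hr, read fluorescence after 1 hr.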
# [10] = A CellTox Green Cytotoxicity Assay to monitor cytotoxicity in HepG2 cells - 16 hour (AID 1224876); note: nearly all actives have a fitted effect of over 45% in size; note: potency is the fitted concentration of half-maximal effect
# How it was run: (§1)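 Using 1536-well format, dye-containing HepG2 suspension was seeded, allowed 5 h at 37 C/5% CO2, dosed by pintool with compounds, positive and negative controls, and imaged for fluorescence across 40 h.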
# [11] = A CellTox Green Cytotoxicity Assay to monitor cytotoxicity in HepG2 cells - 8 hour (AID 1224890); note: nearly all actives have a fitted effect of over 45% in size; note: potency is the fitted concentration of half-maximal effect
# How it was run: as §1
# [12] = qHTS assay to identify small molecule antagonists of the TGF-beta/Smad signaling pathway (AID 1346924; active = well fitted inhibition curve with a large enough effect in the signal ratio in the repeat runs, not every such curve was filed as active; inconclusive = weak or mixed curves; the % refers to the signal ratio); conditions: SBE-bla HEK293T, TGF-beta/Smad reporter, beta-lactamase ratio; activity, negative = inhibition: at 76.8 µM (top of the series) unless noted
# How it was run: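 SBE-bla HEK 293T cells were plated overnight, then received compound in DMSO plus TGF-beta1 (added as a 0.25 ng/mL solution) and were incubated 5 h at 37 C. Beta-lactamase reporter activity was read after 2 h at room temperature with LiveBLAzer B/G FRET substrate (ex 405, em 460/530 nm).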
# [13] = target: Aromatase (Homo sapiens) (UniProt P11511); assay: qHTS assay to identify aromatase inhibitors (AID 743083); note: nearly all actives have a fitted effect of over 55% in size; note: potency is the fitted concentration of half-maximal effect
# [14] = qHTS assay to identify small molecule agonists of the estrogen related receptor signaling pathway with the pleiotropic PPARgamma coactivator (PGC) from Tox21 10K library (AID 1224842); note: nearly all actives have a fitted effect of over 15% in size; note: potency is the fitted concentration of half-maximal effect
# How it was run: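 Luminescence from One-Glo (30 min, room temperature) measured after PGC/ERR cells had 18 h at 37 C with pinned compound (23 nL in DMSO). Cells had been seeded at 2,000 per well and pre-incubated 6 h.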
# [15] = target: Estrogen receptor (Homo sapiens) (UniProt P03372); assay: qHTS assay to identify small molecule antagonists of the estrogen receptor alpha (ER-alpha) signaling pathway using the BG1 cell line in the presence of 0.1 nM 17-beta-estradiol (AID 1259244); note: nearly all actives have a fitted effect of over 50% in size; note: potency is the fitted concentration of half-maximal effect
# How it was run: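 Estradiol at 0.1 nM (final) stimulates the endogenous ER-alpha of VM7Luc4E2 cells carrying an ERE-driven luciferase; compounds are co-incubated 22 h at 37C and luciferase output quantified by luminescence.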
# [16] = qHTS assay to identify small molecule agonists or antagonists of the thyroid stimulating hormone receptor (TSHR) signaling pathway - wild type cell line counter screen (AID 1259384; calls by dose curve; note: potency is the fitted concentration of half-maximal effect); conditions: HEK293 wild type, cAMP HTRF counter-screen; cAMP activity change: at 92.4 µM (top of the series), active compounds read high unless noted
# How it was run: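 Counter screen in untransfected Hek293: compounds (15-point titration, triplicate) plus phosphodiesterase inhibitor Ro20-1724 added after 18 h plating; 30 min RT. Intracellular cAMP via competitive d2/cryptate immunoassay, 1 h incubation.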
# [17] = qHTS assay to identify small molecule antagonists of the estrogen receptor alpha (ER-alpha) signaling pathway using the BG1 cell line in the presence of 0.1 nM 17-beta-estradiol - cell viability counter screen (AID 1259241); note: nearly all actives have a fitted effect of over 40% in size
# How it was run: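 Following 5 days in phenol red-free medium with charcoal-stripped serum, VM7Luc4E2 cells received test compounds alongside 0.1 nM 17beta-estradiol (final) at 37C for 22 hr. Live cells were then quantified via protease-substrate fluorescence.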
# [18] = qHTS RealTime-Glo MT Cell Viability Assay in HepG2 cells - 24 hour (AID 1224867); note: potency is the fitted concentration of half-maximal effect; nearly all actives have a fitted effect of over 50% in size
# How it was run: (§2)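 Viability was tracked continuously by NanoLuc luminescence from prosubstrate reduced by living HepG2 cells, at successive time points over 40 h of compound exposure. Cells with reagent were preincubated 5 h at 37 °C before compound addition.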
# [19] = qHTS RealTime-Glo MT Cell Viability Assay in HepG2 cells - 32 hour (AID 1224877); note: potency is the fitted concentration of half-maximal effect; nearly all actives have a fitted effect of over 55% in size
# How it was run: as §2
# [20] = qHTS assay for small molecules that induce genotoxicity in human embryonic kidney cells expressing luciferase-tagged ATAD5 - cell viability (AID 651634; calls by dose curve; note: nearly all actives have a fitted effect of over 25% in size)
# How it was run: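 Viability read: CellTiter-Fluor fluorescence, 30 min at 37C. Cells: HEK293T, luciferase-tagged ATAD5. Exposure: 15.5 hr, 37C, 5% CO2, compound or DMSO vehicle.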
# Tags give direction and shape of the fitted curve or compound fluorescence and quenching.
# Chain of UniProt P11511 (P11511 whole entry, looked up): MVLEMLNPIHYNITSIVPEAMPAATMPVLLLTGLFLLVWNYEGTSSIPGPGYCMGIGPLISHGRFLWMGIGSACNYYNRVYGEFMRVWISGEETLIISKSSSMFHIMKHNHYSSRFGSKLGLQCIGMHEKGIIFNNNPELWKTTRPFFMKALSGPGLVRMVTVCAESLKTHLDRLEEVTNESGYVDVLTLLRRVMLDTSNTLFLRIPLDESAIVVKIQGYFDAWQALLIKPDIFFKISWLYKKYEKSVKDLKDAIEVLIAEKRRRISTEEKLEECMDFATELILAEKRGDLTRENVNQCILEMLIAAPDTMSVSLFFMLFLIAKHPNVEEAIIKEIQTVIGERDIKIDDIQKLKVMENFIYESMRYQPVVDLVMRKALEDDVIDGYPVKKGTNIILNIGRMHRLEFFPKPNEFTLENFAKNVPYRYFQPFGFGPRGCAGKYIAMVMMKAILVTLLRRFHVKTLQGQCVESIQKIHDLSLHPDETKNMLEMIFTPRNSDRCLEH
# Chain of UniProt P10275 (P10275 whole entry, looked up): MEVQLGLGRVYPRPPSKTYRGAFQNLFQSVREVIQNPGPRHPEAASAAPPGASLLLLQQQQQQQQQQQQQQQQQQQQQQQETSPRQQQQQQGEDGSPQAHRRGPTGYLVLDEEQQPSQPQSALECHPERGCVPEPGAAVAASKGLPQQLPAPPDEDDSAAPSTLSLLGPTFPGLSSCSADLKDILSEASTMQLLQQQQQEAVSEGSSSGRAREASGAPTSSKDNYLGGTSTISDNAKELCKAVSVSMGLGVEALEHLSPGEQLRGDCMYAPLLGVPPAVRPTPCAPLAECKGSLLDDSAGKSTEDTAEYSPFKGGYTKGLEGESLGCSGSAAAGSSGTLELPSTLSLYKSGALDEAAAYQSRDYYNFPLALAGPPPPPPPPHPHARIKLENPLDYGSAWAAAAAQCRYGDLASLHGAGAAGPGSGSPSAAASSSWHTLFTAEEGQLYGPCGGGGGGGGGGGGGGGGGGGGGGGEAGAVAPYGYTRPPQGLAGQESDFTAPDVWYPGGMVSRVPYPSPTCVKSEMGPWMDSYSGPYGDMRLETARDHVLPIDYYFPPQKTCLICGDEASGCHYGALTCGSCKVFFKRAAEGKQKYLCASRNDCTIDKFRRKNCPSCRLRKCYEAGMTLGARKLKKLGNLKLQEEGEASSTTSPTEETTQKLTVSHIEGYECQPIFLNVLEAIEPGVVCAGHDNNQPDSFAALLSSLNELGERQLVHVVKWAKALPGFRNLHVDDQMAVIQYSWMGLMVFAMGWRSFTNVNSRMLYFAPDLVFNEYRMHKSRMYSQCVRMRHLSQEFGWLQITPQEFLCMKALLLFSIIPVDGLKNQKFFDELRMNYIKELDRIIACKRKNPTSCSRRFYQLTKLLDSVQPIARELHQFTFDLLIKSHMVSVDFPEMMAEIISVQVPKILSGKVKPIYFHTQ
# Chain of UniProt P03372 (P03372 whole entry, looked up): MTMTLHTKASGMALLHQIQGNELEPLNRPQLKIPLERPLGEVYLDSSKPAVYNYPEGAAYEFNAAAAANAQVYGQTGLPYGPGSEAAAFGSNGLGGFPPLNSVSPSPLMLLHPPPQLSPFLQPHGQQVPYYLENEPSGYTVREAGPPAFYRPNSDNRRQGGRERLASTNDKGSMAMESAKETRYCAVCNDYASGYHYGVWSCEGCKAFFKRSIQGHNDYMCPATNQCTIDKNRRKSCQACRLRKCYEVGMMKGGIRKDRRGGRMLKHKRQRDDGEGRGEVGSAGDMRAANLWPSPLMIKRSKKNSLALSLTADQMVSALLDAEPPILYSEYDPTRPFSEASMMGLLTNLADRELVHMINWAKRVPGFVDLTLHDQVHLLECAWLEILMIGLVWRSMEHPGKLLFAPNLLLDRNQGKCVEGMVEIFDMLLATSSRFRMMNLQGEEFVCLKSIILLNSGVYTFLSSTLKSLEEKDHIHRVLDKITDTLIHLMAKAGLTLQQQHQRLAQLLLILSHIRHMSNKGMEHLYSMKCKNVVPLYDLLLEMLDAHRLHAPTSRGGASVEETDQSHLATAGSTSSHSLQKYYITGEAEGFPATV
# Chain of UniProt Q96RI1 (Q96RI1 whole entry, looked up): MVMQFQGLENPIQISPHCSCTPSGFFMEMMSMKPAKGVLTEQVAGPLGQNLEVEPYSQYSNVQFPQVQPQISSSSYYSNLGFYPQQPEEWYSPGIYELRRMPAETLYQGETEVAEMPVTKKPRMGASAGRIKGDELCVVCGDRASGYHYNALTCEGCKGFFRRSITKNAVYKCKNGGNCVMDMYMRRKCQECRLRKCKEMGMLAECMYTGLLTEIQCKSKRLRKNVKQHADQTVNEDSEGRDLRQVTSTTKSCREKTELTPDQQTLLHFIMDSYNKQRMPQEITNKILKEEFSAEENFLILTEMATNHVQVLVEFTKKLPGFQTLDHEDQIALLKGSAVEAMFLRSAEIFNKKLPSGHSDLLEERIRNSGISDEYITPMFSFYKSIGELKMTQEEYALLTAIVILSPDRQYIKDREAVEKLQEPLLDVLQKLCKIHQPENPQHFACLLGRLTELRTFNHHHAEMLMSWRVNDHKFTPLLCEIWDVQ
# Chain of UniProt P04150 (P04150 whole entry, looked up): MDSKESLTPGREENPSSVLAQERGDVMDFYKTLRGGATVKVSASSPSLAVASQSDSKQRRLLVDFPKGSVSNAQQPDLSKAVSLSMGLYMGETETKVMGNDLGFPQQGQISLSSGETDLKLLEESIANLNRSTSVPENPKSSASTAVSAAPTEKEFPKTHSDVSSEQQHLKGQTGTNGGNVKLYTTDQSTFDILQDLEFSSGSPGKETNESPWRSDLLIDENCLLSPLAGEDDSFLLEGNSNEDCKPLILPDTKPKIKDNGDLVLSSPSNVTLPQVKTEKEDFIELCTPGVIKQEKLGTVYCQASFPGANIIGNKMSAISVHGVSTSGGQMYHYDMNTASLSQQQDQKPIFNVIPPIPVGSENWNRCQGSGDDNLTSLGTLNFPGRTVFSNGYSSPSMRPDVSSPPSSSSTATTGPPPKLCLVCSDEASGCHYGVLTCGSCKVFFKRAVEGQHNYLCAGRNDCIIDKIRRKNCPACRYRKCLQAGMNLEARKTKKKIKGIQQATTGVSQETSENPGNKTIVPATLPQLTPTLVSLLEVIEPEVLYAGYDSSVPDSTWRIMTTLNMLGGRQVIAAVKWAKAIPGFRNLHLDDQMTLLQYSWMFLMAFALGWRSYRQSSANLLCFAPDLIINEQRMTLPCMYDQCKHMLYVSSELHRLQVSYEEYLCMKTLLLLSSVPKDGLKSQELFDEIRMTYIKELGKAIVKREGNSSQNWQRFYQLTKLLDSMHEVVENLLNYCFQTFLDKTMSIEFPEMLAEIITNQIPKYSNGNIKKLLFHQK
compound,measurement,setting,value
FC(F)(F)c1ccccc1,Potency,[1],inactive
CCCCC/C=C/CC(=O)OC,activation,[2],inconclusive: 60.2% [activator]
CCO[Si](CC)(OCC)OCC,Potency,[3],inactive
same,Potency,[4],"inconclusive: 0.389 µM [activator, single point]"
CC(=O)NCCCCCC(=O)O,Potency,[5],inactive
C=C(C)CCCC,Potency,[6],inactive
c1ccccc1,Potency,[7],inactive
CC(C)OCCO,Potency,[8],inactive
same,Potency,[9],inactive
NC(=O)Nc1ccc(Cl)cc1,Potency,[10],"inconclusive: 21.8 µM [activator, single point]"
same,Potency,[11],"inconclusive: 21.8 µM [activator, single point]"
CCC1(C)C(=O)N(Cl)C(=O)N1Cl (stereo not given),"activity, negative = inhibition",[12],inconclusive: 0.393%
CC[C@H]1OC(=O)[C@H](C)[C@@H](O[C@H]2C[C@@](C)(OC)[C@@H](O)[C@H](C)O2)[C@H](C)[C@@H](O[C@@H]2O[C@H](C)C[C@H](N(C)C)[C@H]2O)[C@](C)(OC)C[C@@H](C)C(=O)[C@H](C)[C@@H](O)[C@]1(C)O,Potency,[13],inactive
CCCCCCCCC(=O)Cl,Potency,[7],inactive
ClCCCl,Potency,[2],inactive
Cc1cccc(C)c1NC(=O)CC12CCCN1CCC2,Potency,[10],"inconclusive: 26.8 µM [activator, single point]"
Cc1cccc(C)c1O,Potency,[14],inactive
CCc1cccc(CC)c1NC(=O)C(=O)O,Potency,[6],inactive
CCCCCCCCOCCC#N,Potency,[13],"inconclusive: 30.6 µM [inhibitor, partial curve, poor fit]"
same,Potency,[14],inactive
same,Potency,[6],inactive
O=C(O)CCC(=O)O,Potency,[14],inactive
same,Potency,[10],inactive
Nc1cc(Cl)cc(S(=O)(=O)O)c1O,Potency,[1],inactive
same,Potency,[15],inactive
Cc1nc(C2CCCCC2)c(-c2ccc(S(N)(=O)=O)c(F)c2)o1,Potency,[15],"inconclusive: 33.5 µM [inhibitor, partial curve, poor fit]"
CC(C)(C)c1nnc(NS(=O)(=O)c2ccccc2)s1,Potency,[6],"inconclusive: 26.6 µM [inhibitor, partial curve, poor fit]"
Cc1ccc(C(=O)c2ccc(CC(=O)O)n2C)cc1,Potency,[3],inconclusive: 5.12 µM [partial curve]
same,Potency,[11],"inconclusive: 26.8 µM [activator, single point]"
same,Potency,[16],inactive
CN(C)c1cc(NC(=O)CNC(C)(C)C)c(O)c2c1C[C@H]1C[C@H]3[C@H](N(C)C)C(=O)C(C(N)=O)=C(O)[C@@]3(O)C(=O)C1=C2O,Potency,[3],inactive
same,Potency,[14],"inconclusive: 26.6 µM [activator, partial curve, poor fit]"
CNC[C@H](O)c1cccc(O)c1,Potency,[2],inactive
same,Potency,[16],"inconclusive: 1.93 µM [rising, full curve, poor fit]"
same,cAMP activity change,[16],"inconclusive: 25.6% [at 42.5 µM, active compounds read high]"
CCC(C)(Oc1ccc(C2(c3ccc(OC(C)(CC)C(=O)O)cc3)CCCCC2)cc1)C(=O)O (stereo not given),Potency,[8],inactive
same,Potency,[4],inactive
same,Potency,[14],inactive
same,Potency,[6],inactive
C[C@@H]1CCC[C@H](C)N1,Potency,[11],inactive
O=C(O)c1cc(C(=O)O)cc([N+](=O)[O-])c1,Potency,[11],inactive
O=S1(=O)N=C(O)c2ccccc21,Potency,[5],inactive
same,Potency,[17],inactive
CC(C)C[C@@H]1[C@H](c2ccccc2)OC(=O)N1CCCN1CCCCCC1,Potency,[17],inactive
CC(C)CCO,Potency,[18],"inconclusive: 21.9 µM [falling, single point]"
same,Potency,[19],"inconclusive: 21.9 µM [cytotoxic, single point]"
C=C(C)C(=O)OCCOC1CC2CC1C1C=CCC21 (stereo not given),"activity, negative = inhibition",[12],inconclusive: -6.31%
Oc1cn2c(n1)Nc1ccc(Cl)c(Cl)c1C2,Potency,[3],"inconclusive: 5.35 µM [rising, full curve]"
O=C1CC[C@H](C(=O)N2CCCCC2)N1,Potency,[20],inactive
NC(CO)C(=O)NNCc1ccc(O)c(O)c1O (stereo not given),Potency,[20],inactive
CC(C)(C)NCC(O)c1cc(O)cc(O)c1 (stereo not given),Potency,[16],active: 2.03 µM
CN(C)CCN(C)CCN(C)C,Potency,[13],inactive
same,"activity, negative = inhibition",[12],inconclusive: -6.85%
Nc1c2c(nc3c1CCC3)CCCC2,"activity change, negative = inhibition",[3],inconclusive: 10.8%
same,Potency,[6],inactive
